The values below come from the RNAGym collection of RNA variant scans (doi:10.1093/nar/gkz1192).

B1: CPEB3 Ribozyme (parent)
chain: UAACAGGGGGCCACAGCAGAAGCGUUCACGUCGCAGCCCCUGUCAGAUUCUGGUGAAUCUGCGAAUUCUGCUGUAUAUCUC

The source gives no read counts; variants with many changes may rest on few reads.

In the series the parent is B1. As to the kind of experiment: self-cleavage, relative activity (ratio to wild type); higher = more cleavage; in vitro, sequencing. In short, it runs like this: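 After error-prone PCR and barcoding, CPEB3 ribozyme mutant libraries were transcribed with T7 RNA polymerase at 37°C for 5 hours, then given 15 min with DNase I before an EDTA stop, and they cleaved during both steps. Reverse transcription with template switching preceded Illumina sequencing. Relative activity divides a variant's cleaved/total read fraction by the unmutated ribozyme's. At least 5 reads were required per variant, and three batches were averaged.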
As for UGACAGUGGGCCACGGCAGAAGCGUUCACGUCCCAGCCCCUGUCAGAUUCUGGUGCUUCUGCGAAUUCUGCUGUAUAUCUC, the self-cleavage turned out to be 0.06.

For the variant UGACAGGUGGCCACAGCAGAAGCGUUCACGUCGCAGCCCCUGUCAGAUUCUGGUGAACCUGCGAAUUCUGCCGUAUACCCC, the self-cleavage was found to be 0.2.

UGACAGGGGGCCACAGCAGAAGCGUUCACGUCACAGCCCCUGUCAGAUUCUGGAGAAUCUGCGAAUUCUGCUGUAUAUCUC: the self-cleavage was 0.22.

Regarding UGACAGGGAGCCACAGCAGGAGCGUUCACGUCGCAGCCCCUGUCGGAUUCUGGUGAAUCUGCGAGUUCUGCUGUAUAUCUC, the self-cleavage was 0.23.

Take UGACAGGGGACCACGGCAGAAGCGUUCACGUCGCAGCCCCAGUCAGAUUCUGGUGAAUCUGCGAAUUCUGCUGUAUAUCUC: the self-cleavage was 0.09.

In the case of UGACAGGGGGCCACAGCAGAAGCGUUCACGUCGCAGCACCUGUCAGAUUCUGGUGAAUCAGCGAAUUCUGCUGUAUAUCUC, the self-cleavage stood at 0.33.

Regarding UGACAGGGGGCCACAGCACAAGCGUUCUCGUCUCAGCCCCUGUCAGAUUCUGGUGAAUCUGCGAAUUCUGCUGUGUAUCCC, the self-cleavage was determined as 0.05.

Consider UGACAGGGGACCACAGCAGAAGCGUUCACGUCGCAGCCCCUGUCAGAUUCUGGUGAAUCUGCGAAUUAUGCCGUAUAUCUC, for which the self-cleavage came to 0.17.

In the case of UGACAGAGGGCCACAGCAGAAGCGUUCAGGUCGCAGCCCCUGUCAGAUUCUGGUGAAUCUGCGAAUCCUGCAGUAUAUCUC, the self-cleavage worked out at 0.07.

For the variant UGACAGGGUGCCACAGCAGAAGCGUUCACGUCGCAGCCCCUGUCAGAUUCUGGUGAAUCUGCGAAUUCUGCUGUAUAUCAC, the self-cleavage was 0.47.

As to UGACAGGGGGCCACAGCAGAAGCGUUCACGUCGCAGCCCCUGUUAGAUUCUGGUGAAUCUGCGGAUUCUGCUGUAUAUCUC, the self-cleavage was 0.33.

Consider UGACAGGGGGCCACAGCAGAAGCGUUCAAGUCGCAGCCCCUGUCAGAAUCUGGUGAAUCUGCGGAUUCUGCUGCAUAUCUC, for which the self-cleavage is 0.15.

For the variant UGACAGGGAGCCACAGCAGAAGCGUUCUCGUCGCAGCCCCUGUCAGAUUCUGGUGAAUCUGCGAAUUUAGAUGUAUAUCUC, the self-cleavage is 0.1.

As to UGACAAGGGGCCACAGCGGAAGCGUUCACGUCGCAGCCCCCGUCAGAUUCUGGUGGAUCAGCGAAUCCUGCUGUAUAUCUC, the self-cleavage stood at 0.06.

Take UGACAGGGGGCCACAGCAUAAGCGAUCACGUCGCAGCCCCUGUCAGAUUCUGGUGAAUCUGCGAAUUCUGCUGUAUAUCUC: the self-cleavage is 0.32.

Turning to UGACAGGAGGCCACAGCAGAAGCGUUCACGUCGCAGCCCCUGUCGGAUUCUGGUGAAUCUGCGAAUUCUGCUGUAUAUCUC, the self-cleavage was determined as 0.47.

As to UGACAGGGGUCCACAGCAGAAGCGUUCACGUCGCAGCCCCUGUCAGAUUCAGGUGAACCUGCGAAUUCCGCUGUAUAUCUC, the self-cleavage amounted to 0.06.

Consider UGACAGGGGGCCACAGCAGAAGCGUUCACGUCGCAGCCCAUGUCGGAUUCUGGUGAAUCCGCGAAUUCUGCUGUAUAACUC, for which the self-cleavage came to 0.08.

UGACAGGAGGCCACAGCAGAAGCGUUCACGUCGCAGCCCCUGUCAGAUCCCGGUGAAUCUGCGAAUUCUGCUGUAUAUCCC: the self-cleavage was determined as 0.04.

As for UGACAGGGGGCCACAGCAGAAGCGUUCACGUCGCAACCCCUGUCAGAUUCUGGUGAAUCAGCGAAUACUGCUGUAUAUCUC, the self-cleavage is 0.05.

With UGACAGGGGGCCACAGCAGAAGCGUUCACGUCGCAACCCCUGUCAGAUUCUGGUGAAUCUGCGAACUCUGCUGUAUAUCCC, the self-cleavage was 0.1.

Regarding UGACAGGGGUCCACAGCAGAAGCGUUCACGCCGCAGCCCCUGUCAGAUUCUGGUGAAUCUGCGAAUCCUGCAGUAUAUCUC, the self-cleavage was 0.07.

In the case of UGACAGGGAGCCACAGCAGAAGCGCUCACGUCGCAGCCCCUGUCAGAUUCUGGUGAAUCUGCGAAUUCUGCUGUAUAUCUC, the self-cleavage turned out to be 0.09.

Take UGACAGGGGGCCACAGCAGAAGCGUUCACGUCGCAGCCACUGUCAGAUUCUGGUGAAUCUGCGAAUUCUGCUGCAUAUCUC: the self-cleavage was 0.42.

Consider UGACAGGGAGCCACAGCAGAAGCGUUCACGUCGCAGCCCCCGUCAGAUUCUGGUGAAUCUGCGAUUACUGCUGUAUACCUC, for which the self-cleavage is 0.11.

In the case of UGACAGAGGGCCAAAGCGGAAGCGAUCACGUCGCAGCCCCUGUCAGAUUCUGGUGAAUCUGCGAAUUCUGCUGUAUAUCUC, the self-cleavage worked out at 0.06.

On to UGACAGGGGGCCACAGCAGAACCGUUCACGUCGCAGCCCCUGUCAGAUUCUGGGGAAUCUGCGAAUUCUGCUGUAUAUCUC, for which the self-cleavage was found to be 0.38.

Turning to UGACAGGAGGCCACGGCAGAAGCGUCCACGUCGCAGCCCCUGACAGAUUCUGGUGAAUCUGCGAAUUCUGCUGUAUAUCUC, the self-cleavage worked out at 0.07.

UGACAGGGGGCCACAGCAGAAGCGUUCACGUAGCAGCCCCUGUCAGAUUCUGGUGAAUCUGCGAAUUCCGCUGUAUUUCCC: the self-cleavage was 0.12.

On to UGACAGGAGGCCACAUCAGAAGCGUUCACGUCGCAGCCCCUGUCAGAUUCUGGGGAAUCUGCGAAUACUGCUGUAUAUCUC, for which the self-cleavage worked out at 0.06.

As for UGACAGAGGGCCACAGCAGAAGCGUUCACGUCGCAGCCCCUGUCGGUUUCUGGUGAAUCUGCGAAUUCUGCUGUAUAUCUC, the self-cleavage amounted to 0.06.

As for UGACAGAGGGCCACAGCCGAAGCGUUCACGUCGCGGCCCCUGUCAGAUUCUGGUGAAUCUGCGAAUCCUGCCGUAUAUCUC, the self-cleavage turned out to be 0.07.

In the case of UGACAAGGGGCCACAGCAGAAGCGUUCACGUCGCAGCCGCUGUCUGAUUCUGGUGAAUCUGCGAAUUCCGCUAUAUAUCUC, the self-cleavage is 0.13.

On to UGACAAGGGGCCACAGCAGAAGCGUUCGCGUCACAGCCCCUGUCAGAUUCUGGUGAAUCUGCGAAUUCCGCUGGAUAUCUC, for which the self-cleavage was 0.09.
